# Values joined by “and” are separate entries in the source; they are usually repeats but may differ in a detail not shown here. Identical values can stand only once. Counter-ions that a name gives are not always drawn. Hit rate of the full screen: of about 5,800 compounds, about 620 (11%) showed activity.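 How the source made its calls: active = score above a cut-off or among the top three wells of a plate; in these data no inactive exceeds 0.85.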 The entries are a selection whose mix differs from that of the whole data set.
# System: primary human hepatic stellate cells (donor 1)
# Test: scaled lipid accumulation score (0 = DMSO-like, 1 = nortriptyline-like); higher = stronger HSC inactivation (lipid re-accumulation), active = hit call of the paper
# Settings: 48 h
# [1] = library stock concentration: 3.33 mM
# [2] = library stock concentration: 10 mM
# [3] = library stock concentration: 80 uM
# [4] = library stock concentration: 400 uM
# [5] = library stock concentration: 2 mM
# [6] = library stock concentration: 1 mM
# [7] = library stock concentration: 5.4 mM
smiles,measurement,setting,value
O=C(c1ccc(OCCCc2c[nH]cn2)cc1)C1CC1 [Ciproxifan],scaled lipid accumulation score,[1],inactive: ≤ 0
same,scaled lipid accumulation score,[2],inactive: 0.186
O=C(c1ccc(OCCCc2c[nH]cn2)cc1)C1CC1 [Ciproxifan hydrochloride],scaled lipid accumulation score,[2],inactive: 0.432
CN1CCN(c2nc(C3=C(c4c[nH]c5ccccc45)C(=O)NC3=O)c3ccccc3n2)CC1 [Sotrastaurin],scaled lipid accumulation score,[3],inactive: 0.028
same,scaled lipid accumulation score,[4],inactive: 0.007
same,scaled lipid accumulation score,[5],inactive: ≤ 0
same,scaled lipid accumulation score,[1],inactive: 0.035
same,scaled lipid accumulation score,[2],inactive: ≤ 0 and inactive: 0.476
COc1cc2ncnc(Nc3ccc(F)c(Cl)c3)c2cc1OCCCN1CCOCC1 [Gefitinib (ZD1839)],scaled lipid accumulation score,[1],inactive: 0.43
COc1cc2ncnc(Nc3ccc(F)c(Cl)c3)c2cc1OCCCN1CCOCC1 [Gefitinib],scaled lipid accumulation score,library stock concentration: 4.5 mM,inactive: 0.19
"COc1cc2ncnc(Nc3ccc(F)c(Cl)c3)c2cc1OCCCN1CCOCC1 [Gefitinib (ZD1839, Iressa) (0.4 mM)]",scaled lipid accumulation score,[4],inactive: 0.081
COc1cc2ncnc(Nc3ccc(F)c(Cl)c3)c2cc1OCCCN1CCOCC1,scaled lipid accumulation score,[3],inactive: ≤ -0.003
same,scaled lipid accumulation score,[4],inactive: ≤ -0.009
same,scaled lipid accumulation score,[5],inactive: 0.19
same,scaled lipid accumulation score,[2],inactive: 0.65
C=C(c1ccc(C(=O)O)cc1)c1cc2c(cc1C)C(C)(C)CCC2(C)C [Bexarotene],scaled lipid accumulation score,[1],inactive: ≤ 0
same,scaled lipid accumulation score,library stock concentration: 5.7 mM,inactive: ≤ -0.006
same,scaled lipid accumulation score,[2],inactive: ≤ 0
CCCNCC(O)COc1ccccc1C(=O)CCc1ccccc1.Cl (configuration not stated) [Propafenone hydrochloride],scaled lipid accumulation score,[2],active: 0.887
CN(C)CCCCC(=O)Nc1ccc(NC(=S)NC(=O)c2ccc(C(C)(C)C)cc2)cc1 [Tenovin-6],scaled lipid accumulation score,[6],inactive: 0.143
same,scaled lipid accumulation score,[2],inactive: 0.405
NS(=O)(=O)c1cc2c(cc1Cl)NC(CC1CCCC1)NS2(=O)=O (configuration not stated) [Cyclopenthiazide],scaled lipid accumulation score,,inactive: ≤ 0
O=C(O)CCCCC1CCSS1 (racemic) [(?)-alpha-Lipoic Acid],scaled lipid accumulation score,[2],inactive: ≤ 0
O=C(O)CCCCC1CCSS1 (racemic) [DL-.alpha.-Lipoic Acid],scaled lipid accumulation score,[6],inactive: ≤ 0
CC(C)(C)NCC(O)c1cc(O)cc(O)c1 (configuration not stated) [Terbutaline hemisulfate],scaled lipid accumulation score,,inactive: 0.031
same,scaled lipid accumulation score,library stock concentration: 6.2 mM,inactive: ≤ 0
same,scaled lipid accumulation score,[2],inactive: ≤ 0
CC(C)(C)NCC(O)c1cc(O)cc(O)c1 (configuration not stated) [Terbutaline Sulfate],scaled lipid accumulation score,[2],inactive: 0.003
CCOC(=O)[N-]c1c[n+](N2CCOCC2)no1 [Molsidomine],scaled lipid accumulation score,,inactive: 0.065
same,scaled lipid accumulation score,[6],inactive: 0.02
same,scaled lipid accumulation score,library stock concentration: 8.3 mM,inactive: ≤ -0.006 and inactive: ≤ 0
same,scaled lipid accumulation score,[2],inactive: ≤ 0 and inactive: ≤ -0.05
CC[N+](CC)(CC)CCOc1cccc(OCC[N+](CC)(CC)CC)c1OCC[N+](CC)(CC)CC [Gallamine triethiodide],scaled lipid accumulation score,,inactive: ≤ 0
same,scaled lipid accumulation score,[2],inactive: ≤ -0.056
CC[N+](CC)(CC)CCOc1cccc(OCC[N+](CC)(CC)CC)c1OCC[N+](CC)(CC)CC [Gallamine Triethiodide],scaled lipid accumulation score,[1],inactive: ≤ 0
same,scaled lipid accumulation score,[2],inactive: ≤ 0
O=C(O)CCC/C=C\C[C@H]1C(=O)C[C@@H](O)[C@@H]1/C=C/[C@@H](O)COc1ccccc1 [16-phenoxy tetranor Prostaglandin E2],scaled lipid accumulation score,[6],inactive: ≤ 0
Cc1c[nH]c(/C=C2\C(=O)Nc3ccccc32)c1CCC(=O)O,scaled lipid accumulation score,[4],inactive: 0.001
same,scaled lipid accumulation score,[5],inactive: ≤ -0.005
same,scaled lipid accumulation score,[2],inactive: 0.017
CN[C@@H]1[C@H](O[C@H]2[C@H](O[C@H]3[C@H](O)[C@@H](O)[C@H](NC(=N)N)[C@@H](O)[C@@H]3NC(=N)N)O[C@@H](C)[C@]2(O)CO)O[C@@H](CO)[C@H](O)[C@H]1O [Dihydrostreptomycin sulfate],scaled lipid accumulation score,,inactive: ≤ 0
same,scaled lipid accumulation score,library stock concentration: 2.9 mM,inactive: 0.024
same,scaled lipid accumulation score,[2],inactive: ≤ 0
NCc1ccc(S(N)(=O)=O)cc1 [Mafenide hydrochloride],scaled lipid accumulation score,,inactive: ≤ 0
same,scaled lipid accumulation score,library stock concentration: 9 mM,inactive: ≤ -0.001
same,scaled lipid accumulation score,[2],inactive: ≤ 0
NCc1ccc(S(N)(=O)=O)cc1,scaled lipid accumulation score,[2],inactive: ≤ 0
Cc1ccccc1N=Nc1ccc(NC(=O)c2ccnn2C)c(C)c1,scaled lipid accumulation score,[2],inactive: ≤ -0.006
c1ccc(-c2n[nH]c3c2oc2ccccc23)cc1,scaled lipid accumulation score,[1],inactive: ≤ 0
same,scaled lipid accumulation score,[2],inactive: ≤ -0.001
CC/C(=C(\c1ccccc1)c1ccc(OCCN(C)C)cc1)c1ccccc1 [Tamoxifen],scaled lipid accumulation score,[2],inactive: 0.674 and inactive: 0.394
same,scaled lipid accumulation score,library stock concentration: 13.5 mM,inactive: 0.777
CC/C(=C(\c1ccccc1)c1ccc(OCCN(C)C)cc1)c1ccccc1 [Tamoxifen citrate],scaled lipid accumulation score,,inactive: 0.372
same,scaled lipid accumulation score,library stock concentration: 3.5 mM,inactive: 0.611
same,scaled lipid accumulation score,[7],inactive: 0.421
same,scaled lipid accumulation score,[2],inactive: 0.253 and inactive: 0.681 and inactive: 0.432
CC/C(=C(\c1ccccc1)c1ccc(OCCN(C)C)cc1)c1ccccc1 [Tamoxifen Citrate],scaled lipid accumulation score,[1],inactive: 0.368
same,scaled lipid accumulation score,[2],inactive: 0.579
c1ccc2oc(C3=NCCN3)cc2c1 [2-BFI hydrochloride],scaled lipid accumulation score,[2],inactive: ≤ 0
NC(CCC(=O)NC(CSN=O)C(=O)NCC(=O)O)C(=O)O [S-Nitroso-L-glutathione],scaled lipid accumulation score,[6],inactive: 0.026
COC(=O)C(N)Cc1ccc(Cl)cc1 (racemic) [DL-p-Chlorophenylalanine methyl ester hydrochloride],scaled lipid accumulation score,[2],inactive: ≤ 0
O=c1c(O)c(-c2ccc(O)c(O)c2)oc2cc(O)cc(O)c12 [Quercetin dihydrate],scaled lipid accumulation score,[2],inactive: 0.021
O=c1c(O)c(-c2ccc(O)c(O)c2)oc2cc(O)cc(O)c12 [Quercetin Dihydrate],scaled lipid accumulation score,[1],inactive: 0.003
same,scaled lipid accumulation score,[2],inactive: 0.012
O=c1c(O)c(-c2ccc(O)c(O)c2)oc2cc(O)cc(O)c12 [Quercetine dihydrate],scaled lipid accumulation score,,inactive: ≤ 0
O=c1c(O)c(-c2ccc(O)c(O)c2)oc2cc(O)cc(O)c12 [Quercetin],scaled lipid accumulation score,[6],inactive: 0.019
same,scaled lipid accumulation score,[1],inactive: 0.017
same,scaled lipid accumulation score,[2],inactive: 0.007 and inactive: 0.079 and inactive: 0.097
Cc1cnc(C(=O)O)c[n+]1[O-] [Acipimox],scaled lipid accumulation score,[1],inactive: 0.043
same,scaled lipid accumulation score,[2],inactive: 0.023
same,scaled lipid accumulation score,library stock concentration: 13 mM,inactive: ≤ 0
CC(=O)Nc1cccc(O)c1 [Metacetamol],scaled lipid accumulation score,[2],inactive: ≤ 0
O=C(c1cncc(Br)c1)N1CCC(N2CCCC2)CC1,scaled lipid accumulation score,[3],inactive: ≤ 0
same,scaled lipid accumulation score,[4],inactive: ≤ 0
same,scaled lipid accumulation score,[5],inactive: ≤ 0
same,scaled lipid accumulation score,[1],inactive: ≤ -0.009
same,scaled lipid accumulation score,[2],inactive: ≤ 0
O=C(O)C1(C(=O)O)CCC1.[NH2-].[NH2-].[Pt+2] [Carboplatin],scaled lipid accumulation score,[7],inactive: ≤ 0
same,scaled lipid accumulation score,library stock concentration: 5.9 mM,inactive: ≤ 0
same,scaled lipid accumulation score,[2],inactive: 0.058 and inactive: ≤ 0 and inactive: 0.006
CN1CCN(S(=O)(=O)c2ccc(-c3cnc(N)c(C(=O)Nc4cccnc4)n3)cc2)CC1,scaled lipid accumulation score,[2],active: 1.02
CCOc1cc2ncc(C#N)c(Nc3ccc(F)c(Cl)c3)c2cc1NC(=O)C=CCN(C)C,scaled lipid accumulation score,[2],active: 1.13
CNCCC(Oc1ccc(C(F)(F)F)cc1)c1ccccc1.Cl (configuration not stated) [Fluoxetine hydrochloride],scaled lipid accumulation score,[2],active: 1.57
COc1ccc2cccc(N3CCN(CCNC(=O)c4ccc(F)cc4)CC3)c2c1,scaled lipid accumulation score,[2],inactive: 0.585
CC(C)NC[C@@H](C(=O)N1CCN(c2ncnc3c2[C@H](C)C[C@H]3O)CC1)c1ccc(Cl)cc1,scaled lipid accumulation score,[2],active: 0.881
CC1=C(C/C=C(\C)CCC[C@H](C)CCC[C@H](C)CCCC(C)C)C(=O)c2ccccc2C1=O [Phylloquinone],scaled lipid accumulation score,[2],inactive: 0.106
CC1=C(C/C=C(\C)CCC[C@H](C)CCC[C@H](C)CCCC(C)C)C(=O)c2ccccc2C1=O [Phytonadione],scaled lipid accumulation score,library stock concentration: 4.4 mM,inactive: 0.012
O=C(O)c1cc(I)ccc1NC(=O)[C@H](Cc1ccccc1)NCc1ccccc1,scaled lipid accumulation score,[1],inactive: ≤ -0.009
same,scaled lipid accumulation score,[2],inactive: ≤ 0
Cc1ncc(COP(=O)([O-])[O-])c(CN(CCN(CC(=O)O)Cc2c(COP(=O)([O-])O)cnc(C)c2O)CC(=O)O)c1O.[Mn].[Na+].[Na+].[Na+],scaled lipid accumulation score,[2],inactive: 0.072
CCCCC[C@H](O)/C=C/[C@@H]1[C@@H](C/C=C\CCCC(=O)NCCO)[C@@H](O)C[C@@H]1O [11.beta.-Prostaglandin F2.alpha. Ethanolamide],scaled lipid accumulation score,[6],inactive: ≤ 0
COc1ccc(C(=O)c2ccccc2O)c(O)c1 [Dioxybenzone],scaled lipid accumulation score,,inactive: ≤ 0
same,scaled lipid accumulation score,[2],inactive: ≤ 0
CC(C)(C)NC[C@H](O)COc1ccccc1C1CCCC1 [Penbutolol sulfate],scaled lipid accumulation score,,inactive: 0.802
CCCCCCCCCCCCCCCCOCC(COP(=O)([O-])OCC[N+](C)(C)C)OC (configuration not stated) [1-Hexadecyl-2-methylglycero-3 PC],scaled lipid accumulation score,[6],inactive: 0.043
Nc1nc2[nH]cc(CCc3ccc(C(=O)N[C@@H](CCC(=O)O)C(=O)O)cc3)c2c(=O)[nH]1,scaled lipid accumulation score,[2],inactive: ≤ 0
COCCc1ccc(OCC(O)CNC(C)C)cc1 (configuration not stated) [Metoprolol Tartrate],scaled lipid accumulation score,[1],inactive: ≤ 0
same,scaled lipid accumulation score,[2],inactive: 0.026
COCCc1ccc(OCC(O)CNC(C)C)cc1 (configuration not stated) [Metoprolol tartrate],scaled lipid accumulation score,library stock concentration: 4.8 mM,inactive: ≤ -0.001
same,scaled lipid accumulation score,library stock concentration: 7.5 mM,inactive: ≤ 0
same,scaled lipid accumulation score,[2],inactive: 0.013
COCCc1ccc(OCC(O)CNC(C)C)cc1 (stereo not drawn) [(?)-Metoprolol (+)-tartrate],scaled lipid accumulation score,[2],inactive: ≤ -0.055
CN(C(=O)c1c(O)c2ccccc2n(C)c1=O)c1ccccc1 [Linomide],scaled lipid accumulation score,[2],inactive: 0.031
OCc1ccccn1,scaled lipid accumulation score,[2],inactive: ≤ 0
COc1ccc(CN2CCN(C(c3ccc(F)cc3)c3ccc(F)cc3)CC2)c(OC)c1OC [Lomerizine HCl],scaled lipid accumulation score,[1],inactive: 0.067
same,scaled lipid accumulation score,[2],inactive: 0.386
COc1ccc(CN2CCN(C(c3ccc(F)cc3)c3ccc(F)cc3)CC2)c(OC)c1OC,scaled lipid accumulation score,[2],inactive: 0.282 and inactive: 0.257

# — the supplement of paper PMC9135407
